Reference: PubChem BioAssay AID588855 (National Center for Advancing Translational Sciences (NCATS), 2011)
In all, about 410,000 compounds went through this assay and about 5,000 (1.2%) were called active. Inconclusive results, whose numbers are uncertain, are shown with a selection of clear calls. The call rests on the fitted dose curve; in most records, active means well fitted inhibition curve with a large enough effect; inconclusive means small, poorly fitted or top-dose-only effect; inactive means no such curve, though single readings can be large or run the other way. A potency beside an inconclusive call is a rough fit, not a confirmed value.
On the % scale 0 is the no-effect control and ±100 the full control effect; potency means the concentration at half of the fitted maximal effect; tags describe the fitted curve by direction and shape.

Assay: qHTS for Inhibitors of TGF-b; further: nearly all actives have a fitted effect of over 65% in size
Settings: HepG2 CAGA-GFP TGF-b/SMAD3 reporter, GFP fluorescence, 18 h, TGF-beta stimulated, 500 pg/mL final; series mostly up to 46.1 µM; activity, negative = inhibition: at the top concentration
Method in brief: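 Cell-based qHTS in HEPG2 carrying a CAGA-GFP Smad reporter; compounds added before 500 pg/mL final TGF-beta, 18 h incubation at 37 degrees C, GFP fluorescence quantified per cell by imaging cytometry.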
For `CNC(=S)N1CCN(c2ccc([N+](=O)[O-])cc2)CC1`, the Potency was inconclusive: 14.1 µM [inhibitor, partial curve, poor fit]. For `Cc1cc2c(C)cc(=O)[nH]c2cc1NC(=O)CCl`, the Potency was inconclusive: 12.6 µM [inhibitor, partial curve]. In the case of `Cc1ccc(Cl)cc1NC1=C/C(=N\S(=O)(=O)c2cccs2)c2ccccc2C1=O`, the Potency is reported as active: 3.98 µM. With `COc1ccc(N2CCN(CCCNC(=O)c3c(C)nn(-c4ccc(F)cc4)c3-n3cccc3)CC2)cc1` the Potency was inconclusive: 35.5 µM [inhibitor, single point]. With `COc1ccc(S(=O)(=O)N(CC(=O)NC(C)c2ccccc2)c2ccc(C)cc2)cc1OC` (stereo not drawn) the Potency was inconclusive: 17.8 µM [inhibitor, partial curve, poor fit]. With `CCc1ccc(NC(=O)Cn2nnc(-c3ccccc3N)n2)cc1` the “activity, negative = inhibition” value was inactive: -15%. With `Cc1ccc(S(=O)(=O)N(C)C[C@@H]2OCCCC[C@@H](C)Oc3ccc(NS(=O)(=O)c4c(C)noc4C)cc3C(=O)N([C@H](C)CO)C[C@@H]2C)cc1` the Potency was inconclusive: 11.2 µM [inhibitor, partial curve]. For `O=C(NCc1cccc(C(F)(F)F)c1)c1cccc(S(=O)(=O)NCc2ccccc2)c1`, the Potency was inconclusive: 22.4 µM [inhibitor, single point]. For `CCOC(=O)CNNC(=O)Nc1ccc(Cl)c(Cl)c1`, the “activity, negative = inhibition” value was inactive: 19.7%. For `Cc1cc2c(cc1S(=O)(=O)NCc1ccc(F)cc1)OCCN2C`, the “activity, negative = inhibition” value was inactive: -13%. In the case of `CCCCN(Cc1cc2cc(C)ccc2[nH]c1=O)C(=O)c1cccc(Cl)c1`, the Potency is reported as inconclusive: 2.51 µM [inhibitor, partial curve, poor fit]. For `COc1ccc(-c2csc(NCCc3nc4cc(Cl)c(Cl)cc4n3CCCO)n2)cc1`, the Potency was inconclusive: 35.5 µM [inhibitor, partial curve, poor fit]. In the case of `C[C@H](CO)N1C[C@H](C)[C@@H](CN(C)S(=O)(=O)c2cccs2)Oc2c(NC(=O)c3ccncc3)cccc2C1=O`, the Potency is reported as inconclusive: 7.94 µM [inhibitor, partial curve, poor fit]. For `COc1cccc(CNC(=O)CCC(=O)n2ncc3cc(C)ccc32)c1OC`, the “activity, negative = inhibition” value was inactive: 4.13%. In the case of `CN(C)CCCNC(=O)CC(c1ccccc1)c1ccccc1O` (stereo not drawn), the “activity, negative = inhibition” value is reported as inactive: 10.5%. With `O=C(Nc1ccccc1O)c1ccc(NS(=O)(=O)c2cccc3cccnc23)cc1` the Potency was inconclusive: 35.5 µM [inhibitor, single point]. For `Cc1ccccc1S(=O)(=O)Cc1ccc(C(=O)N2CCN(c3cccc(C)c3C)CC2)o1`, the Potency was inconclusive: 11.2 µM [inhibitor, partial curve]. For `COc1ccc(NC(=O)C2CCN(C(=O)Nc3ccccc3)CC2)cc1S(=O)(=O)N(C)C`, the Potency was inconclusive: 35.5 µM [inhibitor, partial curve, poor fit]. With `CCOC(=O)C(=O)N(C)c1c(CC)nc2c(OCc3ccc(OC)cc3)cccn12` the “activity, negative = inhibition” value was inactive: 18.2%. In the case of `Cc1ccc(NS(=O)(=O)c2cc(C(=O)NCCSC3CCCCC3)ccc2C)cc1`, the Potency is reported as inconclusive: 35.5 µM [inhibitor, single point]. In the case of `CCCOc1ccc(N2C(=O)CC(SCCc3nc4ccccc4[nH]3)C2=O)cc1` (stereo not drawn), the Potency is reported as inconclusive: 35.5 µM [inhibitor, single point]. For `COc1ccc(Oc2nc3c(c(=O)n(C)c(=O)n3C)n2Cc2ccccc2)cc1`, the “activity, negative = inhibition” value was inactive: -2.78%. With `CN(C)C(=O)C1C2NC(=S)N(c3ccc(Cl)cc3)C1(C)Oc1ccc(Cl)cc12` (stereo not drawn) the “activity, negative = inhibition” value was inactive: 10.6%. For `Cc1nc2c3ccccc3nc(NNC(=O)CCC(=O)N3CCN(c4ccc(F)cc4)CC3)n2n1`, the Potency was inconclusive: 17.8 µM [inhibitor, single point]. In the case of `CCOC(=O)c1c(C)n(-c2ccc(C)cc2)c2ccc(OCC(O)CNCCCO)cc12` (stereo not drawn), the Potency is reported as inconclusive: 22.4 µM [inhibitor, partial curve, poor fit]. For `O=C(Nc1ccc(OC(F)(F)F)cc1)c1cc(-c2ccc(Cl)cc2)on1`, the Potency was inconclusive: 2.24 µM [inhibitor, partial curve, poor fit]. In the case of `c1ccc(CCn2nnnc2C(c2cccnc2)N2CCN(c3nc4ccccc4s3)CC2)cc1` (stereo not drawn), the Potency is reported as inconclusive: 22.4 µM [inhibitor, single point]. In the case of `CCSc1nc(-c2ccc(OC)cc2)nc2c1Cc1c(CO)cnc(C)c1O2`, the “activity, negative = inhibition” value is reported as inactive: -4.24%. For `Cc1cccc(-c2nnc(SCC(=O)N3c4ccccc4CCc4ccccc43)n2C)c1`, the Potency was inconclusive: 11.2 µM [inhibitor, partial curve]. For `COc1ccccc1[C@@]1(C)ON(c2ccccc2C(F)(F)F)C1=O`, the Potency was inconclusive: 11.2 µM [inhibitor, partial curve, poor fit]. With `COc1ccc(OCC(=O)N/N=c2\oc3c(OC)cccc3cc2C(N)=O)cc1` the Potency was inconclusive: 35.5 µM [inhibitor, single point]. For `CNC(=O)c1ccc(-c2sc3nc(N4CCOCC4)c4c(c3c2N)CCCC4)o1`, the “activity, negative = inhibition” value was inactive: -1.46%. For `NC(=O)c1ccc(SCC(=O)OCC(=O)N2CCCCC2)c([N+](=O)[O-])c1`, the Potency was inconclusive: 3.55 µM [inhibitor, single point]. With `Cc1nn2c(N3CCCC3)c3c(nc2c1-c1ccccc1)CCC3` the “activity, negative = inhibition” value was inactive: -1.95%. For `C=C(C)CC1N(c2cccc(OC)c2)C(=O)[C@@H]2C(C(=O)O)[C@H]3C=C[C@@]12O3` (stereo partly drawn), the Potency was inconclusive: 0.562 µM [inhibitor, full curve, poor fit]. In the case of `Cc1ccc(Oc2ccccc2NC(=O)CSCC(=O)Nc2cc(C)on2)cc1`, the “activity, negative = inhibition” value is reported as inactive: -15.7%. With `COc1cc(CN(C)CC2CCCN(CCc3ccc(F)cc3)C2)c(Cl)cc1O` (stereo not drawn) the “activity, negative = inhibition” value was inactive: -7.34%. For `CSc1nn(Cc2ccc(F)cc2)c(N(C(C)=O)C(C)=O)c1S(=O)(=O)c1ccccc1`, the Potency was inconclusive: 35.5 µM [inhibitor, single point]. With `O=C1N=c2ccccc2=C1c1sc(=S)n(CC2CCCO2)c1O` (stereo not drawn) the Potency was inconclusive: 2.24 µM [inhibitor, partial curve, poor fit]. In the case of `O=[N+]([O-])/C=C/c1cn(Cc2ccccc2)c2ccccc12`, the Potency is reported as inconclusive: 35.5 µM [inhibitor, single point]. For `Cc1ccc(C[n+]2cccc(-c3ccccc3)c2)c(C)c1`, the Potency was inconclusive: 17.8 µM [inhibitor, single point]. In the case of `Cc1cccc(NC(=O)CSc2n[nH]c(-c3ccncc3)n2)c1`, the Potency is reported as active: 3.55 µM. With `N#Cc1c(NC(=O)c2ccc(Cn3cc(Br)cn3)o2)sc2c1CCCCCC2` the Potency was inconclusive: 35.5 µM [inhibitor, single point]. In the case of `CNC(=O)c1c(NC(=O)c2ccc(S(=O)(=O)N3CCCCC3)cc2)sc2c1CCN(C(C)C)C2`, the “activity, negative = inhibition” value is reported as inactive: -18.9%. With `COc1ccc(OC)c(CCNC(=O)c2nc(-c3ccc(Cl)cc3)n3c2CCCCC3)c1` the Potency was inconclusive: 35.5 µM [inhibitor, single point]. In the case of `CSc1nc2ccccc2n1CC(=O)Nc1ccc(C)c(C)c1`, the Potency is reported as inconclusive: 22.4 µM [inhibitor, single point]. With `Cn1ncc(-c2ccno2)c1C(=O)O` the Potency was inconclusive: 0.631 µM [inhibitor, partial curve, poor fit]. With `O=C(CCC(=O)c1ccc(Br)cc1)Nc1cccc(C(F)(F)F)c1` the Potency was inconclusive: 7.94 µM [inhibitor, partial curve, poor fit]. For `CC(C)Cn1nc(C(=O)Nc2cccc(S(=O)(=O)N3CCCC3)c2)c2ccccc2c1=O`, the Potency was inconclusive: 35.5 µM [inhibitor, single point]. With `C/C=C/C1=CC(=O)C[C@H](c2ccc(OC)c(OC)c2)C1` the “activity, negative = inhibition” value was inactive: 12%. In the case of `Cc1ccc(C(=O)c2oc3ccccc3c2NC(=O)COc2ccc(Cl)c(C)c2)cc1`, the “activity, negative = inhibition” value is reported as inactive: 3.88%. In the case of `COc1cccc(NC(=O)Cn2c(=O)oc3cc(S(=O)(=O)N4CCCCC4)ccc32)c1`, the Potency is reported as inconclusive: 17.8 µM [inhibitor, single point]. For `O=c1c2ccccc2nc(SCc2cn3ccsc3n2)n1-c1ccccc1F`, the Potency was inconclusive: 17.8 µM [inhibitor, partial curve, poor fit]. In the case of `Cc1ccc(C)c(N2CCN(C(=S)Nc3ccc4nc(N5CCN(C)CC5)cc(C)c4c3)CC2)c1`, the Potency is reported as inconclusive: 15.8 µM [inhibitor, single point]. In the case of `O=C(/C=C/c1ccc(F)cc1)Nc1cccc(S(=O)(=O)Nc2cccc(C(F)(F)F)c2)c1`, the Potency is reported as inconclusive: 3.16 µM [inhibitor, single point]. With `CN1C[C@@H]2C[C@@H](C3=Cc4cc(Cl)ccc4OC3)N3CCC[C@@]23C1=O` the Potency was inconclusive: 0.631 µM [inhibitor, full curve, poor fit]. In the case of `COc1ccccc1NC(=O)c1c(-c2ccc(C)cc2)nnc2ccccc12`, the “activity, negative = inhibition” value is reported as inactive: -4.22%. With `Cc1noc(NC(=O)c2ccc(Cl)c(Cl)c2)c1Cl` the Potency was inconclusive: 35.5 µM [inhibitor, single point]. In the case of `CCC(=O)N1CCc2cc(Br)cc(S(=O)(=O)N3CCCC(C(=O)Nc4ccc(C)c(F)c4)C3)c21` (stereo not drawn), the Potency is reported as inconclusive: 14.1 µM [inhibitor, partial curve, poor fit]. In the case of `CCCCNc1nc2c(S(=O)(=O)c3ccc(Br)cc3)nnn2c2ccsc12`, the “activity, negative = inhibition” value is reported as inactive: 10.4%. In the case of `Cc1ccc(NC(=O)Cn2c(=O)n(Cc3nc(-c4ccccc4)no3)c(=O)c3ccccc32)c(C)c1`, the Potency is reported as inconclusive: 0.447 µM [inhibitor, full curve, poor fit]. In the case of `CC1CC(C)CN(c2ncnc3c2cnn3Cc2ccc(Cl)cc2)C1` (stereo not drawn), the Potency is reported as inconclusive: 35.5 µM [inhibitor, single point]. In the case of `CC(C)NC(=S)N/N=C/c1ccc(N2CCOCC2)cc1`, the Potency is reported as inconclusive: 20 µM [inhibitor, single point].
